# Measurements from the supplement of paper PMC3334620.
# Whole data set: some 33,000 sequences, median “E-score (-0.5 to 0.5)” near -0.054, cut for the highest 2% near 0.39. The list shows a part of the results.
# Target: Ylr278c (UniProt Q05854)
# Experiment: PBM E-score (8-mer binding enrichment) (E-score (-0.5 to 0.5)); higher = stronger / more preferred TF binding; most listed sequences are background and not binding sites
# Conditions: protein concentration: 200 nM; construct: GST-DNA-binding domain
# How it was run: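 Using PURExpress in vitro transcription/translation, GST-tagged yeast transcription factors were made in full-length or DNA-binding-domain form. These were applied at about 100-200 nM to double-stranded universal all-10-mer Agilent arrays, and bound protein was detected with fluorescent anti-GST. Scans were normalised with masliner before the Universal PBM Analysis Suite assigned E-scores to ungapped eight-base words pooled with their reverse complements.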
row,Sequence,PBM E-score
1,ATTCCAAT,-0.0304
2,AAGGCGCG,-0.133
3,ATGCAATC,-0.0874
4,ATGGACTA,-0.18
5,CGTATGAA,0.0155
6,CTTCTTTA,0.0438
7,CACACGAA,-0.114
8,AAACCCGC,0.287
9,TGGTTACA,-0.27
10,ATACCTTC,0.0292
11,ACCAGAAG,-0.321
12,ACAGACTA,-0.223
13,CAGGCCGC,-0.0383
14,GTAAATTA,-0.0254
15,ACCTTCAG,-0.177
16,CCGGCTCA,0.317
17,ATGCCGAG,0.213
18,ACTGAGAC,-0.221
19,ATGGCTTC,-0.2
20,ATTACGCC,-0.015
21,AAATATCC,0.125
22,ACGCCGAC,0.343
23,CGGGTGGA,0.0152
24,TCGGTTAA,0.258
25,CTGCGAGC,0.0649

row,Sequence,PBM E-score
1,AACCGAAT,0.133
2,ATCTGTCA,0.0135
3,CTCGATTC,-0.0393
4,GCAAGTAA,-0.0728
5,ATTTCCGG,0.475
6,GTGTGGCA,-0.109
7,ATCTTCAG,0.0375
8,AAATTGGT,0.0898
9,CACCTTGG,-0.0141
10,GCAGGCTA,-0.17
11,ACGTGGGC,-0.0953
12,CTGCCGGA,0.355
13,CTACCTAC,0.0201
14,CACAGGTA,-0.157
15,AACTACTT,-0.0821
16,CAAGCGGG,0.186
17,GGGGTCAC,-0.0137
18,AGAAATTA,0.0733
19,AGAGGAGA,-0.262
20,CAACGAAC,0.0587
21,CTGCCGGC,0.347
22,GTGGAACA,0.0188
23,GAAACAGA,-0.0894
24,TACCCACA,-0.0145
25,TCTCCCCA,-0.00356

row,Sequence,PBM E-score
1,ATGCCGGA,0.456
2,GGCCGGTA,0.261
3,TAAGGGTA,-0.315
4,CAATAACC,0.0651
5,ACCCTTCA,-0.132
6,CCTTATAG,-0.296
7,TAGATTGA,0.0387
8,ACTAAGCC,0.0973
9,CCATATCG,0.199
10,TCGTGACA,-0.0361
11,CCCCCGGG,0.296
12,AGCACGGG,0.066
13,CATACCTA,-0.117
14,CAATAGAG,-0.369
15,ACGTGCCG,0.138
16,GGAGCAGA,0.109
17,AGAAGGTC,0.0215
18,GAGGTGGA,0.0588
19,GCCGAGGA,0.197
20,ACCGAAGG,0.0746
21,AGAAGTAT,0.00141
22,CGCGTAGA,-0.0365
23,TACTAAGA,-0.0701
24,AAGACTGG,-0.191
25,CGACAGAG,-0.156

row,Sequence,PBM E-score
1,CGAGTCCG,0.391
2,CCTCGTCG,0.139
3,CAGGGGTC,-0.057
4,TGGAGCCA,-0.194
5,AGATAGGC,-0.123
6,CTGCGGAC,0.221
7,CTAGTTAA,-0.183
8,AACTCGGC,0.215
9,GGGTCCAC,-0.0482
10,ACTGCAGA,-0.11
11,ACCACAGC,-0.145
12,CTGGAAAA,-0.00229
13,CTTCAGGA,0.0541
14,AGTCAAAA,-0.0915
15,CCAGCATA,-0.163
16,ACACTTCA,-0.0729
17,CCTGATAG,-0.273
18,ATCGGTCC,0.325
19,AGAGCTCG,0.0797
20,GTCTCGGA,0.385
21,AGGCTTGC,-0.199
22,GGCGCGTA,0.0388
23,GATATTCC,0.293
24,CCCCCCTA,-0.268
25,CGCATATA,-0.0195

row,Sequence,PBM E-score
1,TATGCACA,-0.2
2,ACTTTACC,0.0501
3,TGGGATAA,-0.00947
4,TCCTAGGA,0.0528
5,ATGATTCC,0.121
6,GAGTCGAA,0.0359
7,CTTGACCC,0.0732
8,AGATCAGG,-0.213
9,GTTCTATA,-0.207
10,CTTCATGC,-0.0885
11,AGCGTCAC,-0.138
12,AATGACAT,-0.0594
13,TAAAGTAA,-0.0915
14,ACCTCAAG,-0.209
15,CATTGAAC,0.0511
16,ACATCGGT,0.16
17,AAGAGCAA,-0.156
18,CCCATAGA,-0.292
19,CGCTAAAA,-0.0348
20,GTGCGCAC,0.238
21,ACCGCCAG,0.146
22,GAAAGTAA,-0.0679
23,AAGTGACG,-0.128
24,CACTAGGG,-0.259
25,GGACACAC,0.149

row,Sequence,PBM E-score
1,AGTACAAC,0.075
2,ACTCAGGG,-0.204
3,CGAGCGCG,0.236
4,CCTAGTTC,-0.182
5,CAATGCGG,0.19
6,AAGTATAG,-0.157
7,ACTCGTCG,-0.161
8,TATTTTCA,-0.0452
9,AGCTACCT,-0.105
10,TCTGGGAA,-0.187
11,ATTGCGAG,0.0736
12,AATCGACA,-0.0173
13,GCCACCAA,-0.0527
14,CACACCAA,-0.0145
15,ATGTCATA,-0.0919
16,GTTCTAGA,0.0109
17,CTGCTCCA,-0.218
18,AGCTTTTG,-0.174
19,TCGTCGAA,-0.357
20,GGTCTCCA,-0.103
21,GAGTCTTA,-0.189
22,AATTACGA,0.00325
23,CCTTGACG,-0.0551
24,AGAGCGTG,-0.0159
25,CCATGACC,-0.137

row,Sequence,PBM E-score
1,AGCCGCGC,0.2
2,CACAAGGG,-0.243
3,AGGTGGCC,-0.0789
4,AGTGGGAC,-0.0281
5,ATAAGTAG,-0.0659
6,ACACAGGT,-0.306
7,CTTATCTA,-0.0407
8,ATGCGAAA,-0.0354
9,CCTTCCAG,-0.185
10,GGCCCGCA,0.188
11,AGATGCCA,-0.161
12,AATGAAGA,-0.09
13,CGGTATCA,0.132
14,CCAACGGG,0.114
15,GACGTCCC,0.0234
16,AGAACATG,-0.0537
17,AGGTCGGA,0.372
18,TGCTTAAA,-0.112
19,GCCCTTCA,-0.115
20,CATGTATC,-0.06
21,TAAACCAA,-0.11
22,ATTTACTC,0.0166
